Results: publication PMC7526519
Results are given in words; binding and its absence hold for the method and conditions named. Some results given as binding are weak or reduced against the parent protein; the word gives no strength.

Sequences of proteins named here, by UniProt entry; tags and fusion partners are left off. A change or cut given only in a name is not applied to a line headed by its entry. A line that says so, or that is headed by a name, gives the form on record, which may keep a tag or linker. Residues count along the entry.
UniProt Q58DD0, residues 18-804: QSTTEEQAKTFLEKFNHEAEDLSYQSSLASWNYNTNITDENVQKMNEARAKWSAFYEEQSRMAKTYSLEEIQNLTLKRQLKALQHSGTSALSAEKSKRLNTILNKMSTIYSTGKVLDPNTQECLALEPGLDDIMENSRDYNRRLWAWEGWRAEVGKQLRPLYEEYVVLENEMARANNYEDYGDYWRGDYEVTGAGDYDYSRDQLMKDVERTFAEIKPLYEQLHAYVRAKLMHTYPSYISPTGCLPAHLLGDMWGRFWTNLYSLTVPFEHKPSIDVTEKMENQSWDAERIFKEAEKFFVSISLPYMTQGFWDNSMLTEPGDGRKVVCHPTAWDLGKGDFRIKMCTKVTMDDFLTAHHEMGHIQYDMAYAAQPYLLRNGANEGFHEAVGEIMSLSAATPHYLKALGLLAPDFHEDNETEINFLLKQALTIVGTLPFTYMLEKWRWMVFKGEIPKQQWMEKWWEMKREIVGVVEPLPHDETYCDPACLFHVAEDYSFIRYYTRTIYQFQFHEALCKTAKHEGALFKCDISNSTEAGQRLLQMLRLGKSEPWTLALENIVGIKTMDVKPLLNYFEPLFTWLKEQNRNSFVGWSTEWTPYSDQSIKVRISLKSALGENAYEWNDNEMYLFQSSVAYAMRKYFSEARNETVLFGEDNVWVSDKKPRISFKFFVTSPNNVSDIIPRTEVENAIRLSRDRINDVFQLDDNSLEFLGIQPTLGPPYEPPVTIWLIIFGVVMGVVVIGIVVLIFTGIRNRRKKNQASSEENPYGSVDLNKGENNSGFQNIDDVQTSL
UniProt Q56H28, residues 18-805: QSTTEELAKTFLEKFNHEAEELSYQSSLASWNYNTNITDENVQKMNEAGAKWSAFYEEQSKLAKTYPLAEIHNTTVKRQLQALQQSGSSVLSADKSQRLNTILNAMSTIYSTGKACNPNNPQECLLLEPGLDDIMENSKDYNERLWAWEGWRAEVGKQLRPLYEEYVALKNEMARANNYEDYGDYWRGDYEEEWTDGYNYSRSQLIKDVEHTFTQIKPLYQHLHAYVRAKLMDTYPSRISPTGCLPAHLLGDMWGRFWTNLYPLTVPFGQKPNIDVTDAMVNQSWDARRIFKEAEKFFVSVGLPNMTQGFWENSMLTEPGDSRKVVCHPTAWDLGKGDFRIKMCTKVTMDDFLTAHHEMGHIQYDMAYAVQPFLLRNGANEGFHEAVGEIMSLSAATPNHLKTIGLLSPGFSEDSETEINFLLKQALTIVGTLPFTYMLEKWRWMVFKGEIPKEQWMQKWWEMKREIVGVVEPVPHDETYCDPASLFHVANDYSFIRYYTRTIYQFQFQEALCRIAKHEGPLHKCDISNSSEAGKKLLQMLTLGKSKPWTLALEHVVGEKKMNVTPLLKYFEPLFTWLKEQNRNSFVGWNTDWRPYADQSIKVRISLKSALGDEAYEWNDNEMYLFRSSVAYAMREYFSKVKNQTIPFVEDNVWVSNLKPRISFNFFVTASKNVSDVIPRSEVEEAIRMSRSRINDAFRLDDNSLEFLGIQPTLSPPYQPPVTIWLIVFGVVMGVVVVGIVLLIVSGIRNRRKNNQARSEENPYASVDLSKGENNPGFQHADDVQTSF
UniProt Q56NL1: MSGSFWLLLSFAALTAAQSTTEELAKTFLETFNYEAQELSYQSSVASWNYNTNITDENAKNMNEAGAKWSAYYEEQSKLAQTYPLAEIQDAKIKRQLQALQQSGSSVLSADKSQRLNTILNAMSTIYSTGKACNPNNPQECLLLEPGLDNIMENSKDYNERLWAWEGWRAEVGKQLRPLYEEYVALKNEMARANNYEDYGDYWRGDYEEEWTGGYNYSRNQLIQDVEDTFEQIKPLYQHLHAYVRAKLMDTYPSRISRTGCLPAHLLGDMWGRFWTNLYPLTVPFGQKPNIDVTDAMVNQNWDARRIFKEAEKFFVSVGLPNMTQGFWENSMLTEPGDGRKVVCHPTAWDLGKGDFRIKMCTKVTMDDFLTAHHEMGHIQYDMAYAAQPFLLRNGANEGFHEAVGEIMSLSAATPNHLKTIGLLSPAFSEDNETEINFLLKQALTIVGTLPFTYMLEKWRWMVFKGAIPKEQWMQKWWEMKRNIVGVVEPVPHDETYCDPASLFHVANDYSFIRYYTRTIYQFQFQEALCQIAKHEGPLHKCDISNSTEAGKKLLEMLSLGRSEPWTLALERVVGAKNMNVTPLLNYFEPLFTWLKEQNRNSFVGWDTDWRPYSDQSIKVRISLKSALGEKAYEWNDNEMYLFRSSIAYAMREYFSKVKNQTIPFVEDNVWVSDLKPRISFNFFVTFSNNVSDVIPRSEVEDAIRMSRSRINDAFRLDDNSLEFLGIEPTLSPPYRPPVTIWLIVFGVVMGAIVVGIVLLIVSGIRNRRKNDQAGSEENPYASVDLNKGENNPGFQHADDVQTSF
civet ACE2, eGFP-tagged: residues 18-805 of Q56NL1
civet ACE2 ectodomain fused with mouse Fc: residues 18-740 of Q56NL1

Tests used:
[1] = biological target: bovine ACE2, eGFP-tagged (bovine) (UniProt Q58DD0); test: flow cytometry on cells; only the binder purified
[2] = biological target: cat ACE2, eGFP-tagged (cat) (UniProt Q56H28); test: flow cytometry on cells; only the binder purified
[3] = biological target: rat ACE2, eGFP-tagged (rat) (UniProt Q5EGZ1); test: flow cytometry on cells; only the binder purified
[4] = biological target: mouse ACE2, eGFP-tagged (mouse) (UniProt Q8R0I0); test: flow cytometry on cells; only the binder purified
[5] = biological target: civet ACE2, eGFP-tagged (civet) (UniProt Q56NL1); test: flow cytometry on cells; only the binder purified
[6] = biological target: mouse ACE2 ectodomain fused with mouse Fc (mouse) (UniProt Q8R0I0); test: SPR; only the binder purified
[7] = biological target: civet ACE2 ectodomain fused with mouse Fc (civet) (UniProt Q56NL1); test: SPR; only the binder purified

| Substance | binding [1] | binding [2] | binding [3] | binding [4] | binding [5] | binding [6] | binding [7] |
| --- | --- | --- | --- | --- | --- | --- | --- |
| SARS-CoV-2 NTD, His-tagged (from UniProt P0DTC2 20-286) (domain or fragment) | no binding (tested: 1 μg/mL) | no binding (tested: 1 μg/mL) | – | – | – | – | – |
| SARS-CoV receptor binding domain (RBD), His-tagged (from UniProt P59594 306-527) (domain or fragment) | binds | binds | no binding (tested: 1 μg/mL) | no binding (tested: 1 μg/mL) | binds | no binding (tested: 400 nM) | binds |
